The results in this text go back to publication PMC4336329 (PLoS ONE, 2015).

The whole screen tested about 310,000 compounds, of which about 2,200 (0.71%) showed an effect of 50% or more. Effects have a minus sign here. This is one part of the list.

Sequence of human ether-à-go-go-related gene (hERG) potassium channel (Q12809 whole entry, looked up): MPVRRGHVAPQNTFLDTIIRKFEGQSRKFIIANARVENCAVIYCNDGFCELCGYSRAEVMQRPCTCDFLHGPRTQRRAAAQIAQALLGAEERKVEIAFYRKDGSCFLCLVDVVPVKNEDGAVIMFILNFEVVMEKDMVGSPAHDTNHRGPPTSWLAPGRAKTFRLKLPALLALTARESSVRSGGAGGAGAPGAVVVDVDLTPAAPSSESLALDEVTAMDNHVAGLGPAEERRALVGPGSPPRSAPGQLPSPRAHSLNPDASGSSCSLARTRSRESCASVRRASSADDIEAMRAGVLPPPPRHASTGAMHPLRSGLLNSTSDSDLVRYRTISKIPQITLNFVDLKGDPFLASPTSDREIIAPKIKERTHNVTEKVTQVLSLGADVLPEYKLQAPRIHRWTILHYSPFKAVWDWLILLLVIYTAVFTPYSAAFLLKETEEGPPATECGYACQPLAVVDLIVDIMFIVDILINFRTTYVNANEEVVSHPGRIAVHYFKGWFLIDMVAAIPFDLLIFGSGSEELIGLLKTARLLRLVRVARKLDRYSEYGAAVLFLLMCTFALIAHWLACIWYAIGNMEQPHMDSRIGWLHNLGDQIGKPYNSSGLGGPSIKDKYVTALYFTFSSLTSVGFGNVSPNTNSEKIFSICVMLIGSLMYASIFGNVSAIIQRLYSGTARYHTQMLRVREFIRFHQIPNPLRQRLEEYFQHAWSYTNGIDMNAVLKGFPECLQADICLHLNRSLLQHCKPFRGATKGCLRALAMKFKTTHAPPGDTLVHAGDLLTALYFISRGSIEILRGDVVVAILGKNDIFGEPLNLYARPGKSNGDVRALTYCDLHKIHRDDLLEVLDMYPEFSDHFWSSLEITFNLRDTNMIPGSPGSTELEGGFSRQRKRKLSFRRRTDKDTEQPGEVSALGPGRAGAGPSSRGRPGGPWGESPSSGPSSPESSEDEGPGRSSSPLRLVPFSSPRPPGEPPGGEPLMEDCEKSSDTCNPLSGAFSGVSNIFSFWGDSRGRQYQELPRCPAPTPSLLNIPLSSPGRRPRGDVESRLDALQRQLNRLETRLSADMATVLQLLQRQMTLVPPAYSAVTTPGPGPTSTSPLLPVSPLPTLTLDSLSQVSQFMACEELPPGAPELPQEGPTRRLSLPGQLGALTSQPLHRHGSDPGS

This experiment concerns the target human ether-à-go-go-related gene (hERG) potassium channel (human, UniProt Q12809). In words: primary screen, population patch clamp on CHO cells stably expressing hERG.
As for `COc1cccc(N=Nc2ccc(O)c3ncccc23)c1`, the “hERG current change (%, negative = inhibition) at 1uM” value is 15.4%.
For `C/C(CC(=O)Nc1ccc([N+](=O)[O-])cc1)=N/NC(=O)C1C2CCCCC21` (stereo not drawn), the “hERG current change (%, negative = inhibition) at 1uM” value is given as -6.25%.
Consider `COc1ccccc1NC(=O)c1ccc2[nH]c(C)c(C)c2c1`, for which the “hERG current change (%, negative = inhibition) at 1uM” value is given as -1.5%.
The result for `COc1cc2c(cc1OC)C(c1c(Cl)cccc1Cl)NC(=O)C2` (stereo not drawn) reads 17.7%; that for `c1ccc(OCCOc2ccccc2-c2nnco2)cc1`, 4.97%.
Then `CCCCn1c(N)c(N(CC)C(=O)c2ccc([N+](=O)[O-])c(C)c2)c(=O)[nH]c1=O`, with 12.1%.
Then `CC(C)CNC(=S)NC(=O)c1ccc(Cl)cc1`, with 9.84%; and `CCN(CC)c1ccc(CN(C(=O)c2cccs2)C2CCS(=O)(=O)C2)cc1` (stereo not drawn), with 8.41%.
`CC(=O)OC1CC(c2cc(C(C)(C)C)c(O)c(C(C)(C)C)c2)=NO1` (stereo not drawn): the “hERG current change (%, negative = inhibition) at 1uM” value is recorded as 7.32%.
Consider `Cc1cc(C(=O)O)c(=O)[nH]c1C`, for which the “hERG current change (%, negative = inhibition) at 1uM” value came out at 15%.
Then `Cc1cc(C(=O)OCC(=O)N2CCOCC2)c2ccccc2n1`, with 16%; and `COc1ccc(-c2cc(=Nc3c(C)n(C)n(-c4ccccc4)c3=O)c3ccccc3o2)cc1`, with -3.81%.
Then `Cc1nn(C)c(=O)n1-c1ccccc1`, with 6.02%; and `COCCn1c(N)c(C(=O)c2cccc(S(=O)(=O)N3CCCCCC3)c2)c(=O)[nH]c1=O`, with 0.77%.
As for `Cc1c(N=Cc2c(O)n(Cc3ccco3)c(=O)c3ccccc23)c(=O)n(-c2ccccc2)n1C`, the “hERG current change (%, negative = inhibition) at 1uM” value is given as 7.99%.
Then `COc1cccc(NC(=O)CSc2nc3ccsc3c(=O)n2-c2ccc(C(=O)O)cc2)c1`, with 3.12%.
The result for `COC(=O)c1ccc(C(NC(=O)c2cccnc2)NC(=O)c2cccnc2)cc1` reads 13.5%; that for `Cc1cc(C)c(C(=O)C[n+]2cccc(C(N)=O)c2)c(C)c1.[Br-]`, 4.48%.
On to `O=C(c1csc2ccccc12)N1CCN(c2ccc(Cl)c(Cl)c2)CC1`, for which the “hERG current change (%, negative = inhibition) at 1uM” value amounted to 9.02%.
Then `O=C(NS(=O)(=O)c1ccccc1)c1ccccc1`, with 8.4%; and `COC(=O)CCN(C(=O)C1C2CC3CC(C2)CC1C3)c1ccccn1` (stereo not drawn), with 11.6%; and `CC(=O)C1=C(O)C(=O)N(Cc2cccnc2)C1c1ccc(Cl)cc1Cl` (stereo not drawn), with 17.1%.
Regarding `Cc1c(CCOC(=O)c2cc([N+](=O)[O-])cc([N+](=O)[O-])c2)sc[n+]1CC(=O)c1ccc(Br)cc1.[Br-]`, the “hERG current change (%, negative = inhibition) at 1uM” value is given as -6.7%.
The result for `C#CCN1C(=O)C(O)(c2c(C)[nH]c3ccccc23)c2ccccc21` (stereo not drawn) reads 16.1%; that for `O=C(Nc1ccnn1C1CCN(CC2CC=CCC2)CC1)c1ccccc1Cl` (stereo not drawn), -37.8%.
The result for `COc1ccc(NC(=S)NCc2cccs2)cc1OC` reads 23.3%; that for `Cc1c(CCC(=O)N[C@@H](C)C(=O)O)c(=O)oc2cc3oc4c(c3cc12)CCCC4`, 10.5%.
The result for `COc1ccccc1NS(=O)(=O)c1ccc(C(=O)N2CCN(c3ccccc3O)CC2)cc1` reads 7.03%; that for `CC1CCN(c2ccc(NC(=O)Cn3c(=O)oc4ccccc43)cc2)CC1`, 10.8%.
As to `Cc1ccc(NC(=S)Nc2nc(CC(=O)Nc3ccccc3)cs2)cc1`, the “hERG current change (%, negative = inhibition) at 1uM” value was 7.34%.
The result for `O=C(Nc1ccccc1Sc1ccccc1)c1ccc(F)cc1` reads 14.9%.
The result for `O=S(=O)(c1ccc(Cl)cc1)n1cccn1` reads 5.09%; that for `Cc1ccc(-c2noc(CCC(=O)NC3CCCc4ccccc43)n2)cc1` (stereo not drawn), 12.6%.
With `CCOC(=O)N/N=C\c1cccc(OC)c1`, the “hERG current change (%, negative = inhibition) at 1uM” value was 21.9%.
Regarding `COc1ccc(NC(=O)c2cccc(N3C(=O)C4C5C=CC(C6CC56)C4C3=O)c2)cc1` (stereo not drawn), the “hERG current change (%, negative = inhibition) at 1uM” value is 9.09%.
Regarding `CCO[C@H]1OC(C(=O)NCc2nc3ccccc3[nH]2)=C[C@@H](c2ccc(C(F)(F)F)cc2)[C@@H]1CCCO`, the “hERG current change (%, negative = inhibition) at 1uM” value is reported as 3.73%.
As to `O=c1nc(N2CCOCC2)nc2n1CCO2`, the “hERG current change (%, negative = inhibition) at 1uM” value came out at 5.07%.
Then `CC1CCCN(C(=O)CCNC(=O)c2ccccc2Cl)C1` (stereo not drawn), with 17.2%; and `O=C(CCCN1C(=O)/C(=C/c2ccccc2Cl)SC1=S)NNC(=O)c1ccncc1`, with 13.8%; and `Cc1nc(SCC(=O)OCc2ccccc2)c2c(=O)n(C)c(=O)n(C)c2n1`, with 17%.
Turning to `O=C(N=C1SC2CS(=O)(=O)CC2N1c1c(Cl)cccc1Cl)C1CC1` (stereo not drawn), the “hERG current change (%, negative = inhibition) at 1uM” value amounted to 10.2%.
Then `Nc1ccccc1NC(=O)c1ccccc1`, with 15.5%; and `CCOc1ccc(NCC2CCOC(C)(C)C2)cc1` (stereo not drawn), with 9.8%.
Then `CCn1c(=O)n(CC)c2cc(NC(=O)CSc3ccc([N+](=O)[O-])cn3)ccc21`, with 5.32%.
The result for `Nc1c(N(CCC2=CCCCC2)C(=O)CCCOc2ccccc2)c(=O)[nH]c(=O)n1Cc1ccccc1` reads -12.6%; that for `Cc1ccc(SCCC(=O)Nc2ccccc2Br)cc1`, 15.8%; that for `O=C(c1cc2sccc2n1Cc1ccc(F)cc1)N1CCc2ccccc21`, 18.4%.
With `CC(Sc1n[nH]c(=O)n1Cc1ccccc1)C(=O)NC1CCCCC1C` (stereo not drawn), the “hERG current change (%, negative = inhibition) at 1uM” value is recorded as 11.2%.
For `Cc1ccc(S(=O)(=O)c2nc(-c3cccs3)oc2NCCCN(C)C)cc1`, the “hERG current change (%, negative = inhibition) at 1uM” value is given as 0.338%.
For the compound `O=C(c1cccc(S(=O)(=O)N2CCCC2)c1)N1CCCc2ccccc21`, the “hERG current change (%, negative = inhibition) at 1uM” value was found to be 7.02%.
Turning to `CN(C)c1ccc(C2NC(=O)c3ccccc3N2)cc1` (stereo not drawn), the “hERG current change (%, negative = inhibition) at 1uM” value amounted to 13.4%.
With `CC1CC2(NC(=O)NC2=O)C(C)CN1C` (stereo not drawn), the “hERG current change (%, negative = inhibition) at 1uM” value is recorded as 6.6%.
Regarding `Cc1cc(C)cc(OCC(=O)O/N=C(\N)Cc2ccc([N+](=O)[O-])cc2)c1`, the “hERG current change (%, negative = inhibition) at 1uM” value is recorded as 10.2%.
Regarding `COc1ccc(-c2noc(-c3ccc(Cl)cc3)n2)cc1`, the “hERG current change (%, negative = inhibition) at 1uM” value is 10.8%.
With `COc1cc(C(=O)N/N=C/c2ccc3c(c2)c2ccccc2n3C)ccc1O`, the “hERG current change (%, negative = inhibition) at 1uM” value is 15.4%.
The result for `CCS(=O)(=O)c1ccc(S(=O)(=O)CC)s1` reads -16.1%; that for `C=CCOc1ccc(/C=C\c2nc(O)c([N+](=O)[O-])c(=O)[nH]2)cc1OC`, 9.51%.
Then `O=C(Nc1ccc(Cl)cc1)Nc1cc([N+](=O)[O-])ccc1F`, with 2.23%; and `CC(C)=NOCC(=O)Nn1c(COc2ccccc2)nc2ccccc2c1=O`, with 12.8%.
For the compound `CNS(=O)(=O)c1cc(OC)ccc1OC`, the “hERG current change (%, negative = inhibition) at 1uM” value was 7.1%.
The result for `Cc1nn(C(C)C(=O)NCc2ccco2)c(C)c1[N+](=O)[O-]` (stereo not drawn) reads 9.63%; that for `COc1ccccc1C(=O)Nc1ccc2c(c1)CCCN2C(=O)c1cccs1`, 6.27%; that for `Cc1ccc(CCC(=O)Nc2ccc(Cl)cc2)o1`, 14.7%.
For `Cc1ccc(C(=O)CSc2cc(C)nc(SCC(=O)c3ccccc3)n2)cc1`, the “hERG current change (%, negative = inhibition) at 1uM” value is 16.7%.
Then `CCOC(=O)c1cn(CC)c2cc(F)c(F)cc2c1=O`, with 15.6%; and `O=[N+]([O-])c1ccc(N/N=C/c2ccc[nH]2)cc1`, with 9.57%.
For `Cl.OCCNc1nc(Nc2ccccc2)nc2ccccc12`, the “hERG current change (%, negative = inhibition) at 1uM” value is listed as -5.62%.
`CSc1ccc(/C=N/N2CCN(C)CC2)cc1.Cl`: the “hERG current change (%, negative = inhibition) at 1uM” value was 4.96%.
For the compound `O=C(/N=C1\NC(=O)C(F)(C(F)(F)F)S1)NC1CCCCC1` (stereo not drawn), the “hERG current change (%, negative = inhibition) at 1uM” value is given as 9.35%.
In the case of `COc1ccc(-n2c(SCC(N)=O)nnc2-c2cccnc2)cc1`, the “hERG current change (%, negative = inhibition) at 1uM” value was determined as 7.82%.
The result for `Cc1cccn2c(=O)c(/C=C(\C#N)C(=O)NC3CCS(=O)(=O)C3)c(Oc3ccc(F)cc3)nc12` (stereo not drawn) reads 7.54%; that for `COCCN(C(=O)COC(=O)Cc1coc2cc3c(cc12)CCC3)c1c(N)n(Cc2ccccc2)c(=O)[nH]c1=O`, 8.2%.
As to `CN(CC(O)CN)CC(O)CN1CCCCC1.Cl` (stereo not drawn), the “hERG current change (%, negative = inhibition) at 1uM” value worked out at 7.98%.
`CCN(CCCNS(=O)(=O)c1ccc2c(c1)CCN2C(C)=O)c1cccc(C)c1`: the “hERG current change (%, negative = inhibition) at 1uM” value came to 20.5%.
As to `COc1ccc(C(=O)Nc2ccc(S(=O)(=O)NC(C)(C)C)cc2)cc1[N+](=O)[O-]`, the “hERG current change (%, negative = inhibition) at 1uM” value worked out at 16.3%.
The result for `Cc1n[nH]c(=O)c2c(NC(=O)CSc3ccc(F)cc3)oc(C)c12` reads 11.7%.
For the compound `COCCCn1c(Cc2ccccc2)nnc1SCC(=O)N1CCCCC1`, the “hERG current change (%, negative = inhibition) at 1uM” value is on record as -5.79%.
Regarding `CC1=C(C(=O)OCc2ccccc2)C(c2ccc(-c3ccccc3)cc2)NC(=O)N1CCCCCC(=O)O` (stereo not drawn), the “hERG current change (%, negative = inhibition) at 1uM” value is listed as 5.22%.
For the compound `O=C(N/N=C\c1cn[nH]c1-c1ccccc1)c1ccc([N+](=O)[O-])cc1`, the “hERG current change (%, negative = inhibition) at 1uM” value is recorded as -13.2%.
For the compound `COc1ccccc1/C=C/CN1CCOCC1`, the “hERG current change (%, negative = inhibition) at 1uM” value is 6.64%.
Regarding `Cn1c(=O)c2cc(S(=O)(=O)NCCC(=O)N3CC=C(c4ccccc4)CC3)ccc2n(C)c1=O`, the “hERG current change (%, negative = inhibition) at 1uM” value is -7.85%.
Then `COc1cc(Cl)c(C)cc1NC(=O)c1ccc(NS(=O)(=O)c2ccc(F)c(F)c2)cc1`, with 10.4%; and `O=S(=O)(/C=C/c1ccccc1)Nc1ccc(F)cc1`, with 10.7%.
Then `CCCCCC(=O)Nc1cccc(C2=NOC3(C2)C[C@@H](C(N)=O)N(C(=O)c2cc([N+](=O)[O-])cc([N+](=O)[O-])c2)C3)c1` (stereo partly drawn), with 13.1%; and `Cc1cc(OC(=O)c2cccc(F)c2)c([N+](=O)[O-])c(=O)[nH]1`, with 12.7%.
The result for `COc1ccc(N2CCN(C(=O)Cn3c(=O)[nH]c4ccsc4c3=O)CC2)cc1` reads 4.71%.
In the case of `CCOc1cc(C2C3=C(CCCC3=O)Nc3ccc4ncccc4c32)ccc1O` (stereo not drawn), the “hERG current change (%, negative = inhibition) at 1uM” value was 12.3%.
